Results as given in PubChem BioAssay (NCATS).
The inconclusive results got no clear call from the source; some entries with a clear call stand among them for comparison. For part of these data: Potencies of inconclusive entries are doubtful fits and often do not repeat. The source made the active and inactive calls. Unless noted, calls come from the whole dose curve; as a rule, active = well fitted curve in the direction sought with a large enough effect; inconclusive = small, poorly fitted or top-dose-only effect, or another doubt; inactive = no such curve, though single readings can be large; an effect the other way counts as inactive or inconclusive.

Columns and labels:
[1] = Cell Viability - BJ (AID 421; calls by dose curve;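 note: potency is the fitted concentration of half-maximal effect; cells exposed to compound for 40 hours at 37 °C before readout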); conditions: BJ fibroblast viability, qHTS
In short: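 Normal human BJ foreskin fibroblasts, 1500/well in complete medium, treated 40 hr at 37 °C. Cellular ATP by CellTiter-Glo luminescence; normalized to DMSO and 100 uM tamoxifen, AC50 from Hill fit.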

[2] = Cell Viability - Jurkat (AID 426;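 active = dose-dependent loss of cell ATP signal giving a full or clear fitted curve, ranked by lower potency value; inconclusive = weak partial curve or response only at the top dose; inactive = no loss of viability signal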; note: potency is the fitted concentration of half-maximal effect); conditions: qHTS
In short: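 Jurkat (Clone E6-1) cells, 5000/well in complete medium, exposed to compounds for 40 hr at 37C; intracellular ATP measured by CellTiter-Glo luminescence after 20 min at room temperature. AC50 from Hill fits.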

[3] = Cell Viability - Hek293 (AID 427;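 active = compounds whose dose-response curve shows a full or clear partial loss of cell viability, called from curve shape rather than a numeric limit; inconclusive = weak partial curves or an effect only at the top dose; inactive = no dose-dependent loss of viability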;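 note: potency is the fitted concentration of half-maximal effect; cells exposed to compound for 40 hours at 37 °C before reading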); conditions: qHTS
In short: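 HEK293 cells in complete medium were exposed to compound for 40 hr at 37 °C, then cellular ATP was read by CellTiter-Glo luminescence. Data were normalized to DMSO (basal) and 100 uM tamoxifen (100% inhibition), and AC50 came from Hill fits.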

[4] = Cell Viability - HepG2 (AID 433; calls by dose curve;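 note: potency is the fitted concentration of half-maximal effect; potency for ATP loss meaning cytotoxicity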); conditions: qHTS
In short: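 Cytotoxicity is scored as loss of intracellular ATP in HepG2 cells exposed to compounds for 40 h. Concentration-response curves, normalized to DMSO and 100 uM tamoxifen, give AC50 values.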

[5] = biological target: Mitogen-activated protein kinase 10 (Mus musculus) (UniProt Q61831); experiment: JNK3 AlphaScreen Assay (AID 530; active = well fitted curve in either direction with a large enough effect, not every such curve was filed as active; inconclusive = small, poorly fitted or top-dose-only effect, or another doubt;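 note: kinase came from lysate of stimulated human HepG2 cells; signal reports phosphorylation of biotinylated GST-cJun 1-79 at Ser73 with 10 µM ATP; potency is the fitted concentration of half-maximal effect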); conditions: JNK3 lysate, c-Jun phosphorylation; activity change, negative = inhibition: at 57.1 µM (top of the series)
In short: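 Pre-activated (IL-1β/TNFα) JNK3 in HepG2 lysates phosphorylates biotin-GST-cJun(1-79), 10 uM ATP; anti-phospho-cJun(Ser73) AlphaScreen read at room temperature, pH 7.6 Tris buffer. Compounds pre-incubated 15 min as titrations.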

[6] = Cell Viability - N2a (AID 540); conditions: N2a mouse neuroblastoma cell viability; activity change, negative = cytotoxicity: at 92.2 µM (top of the series);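 note: plate controls were DMSO alone for no effect and tamoxifen control for full effect; nearly all actives have a fitted effect of over 45% in size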
In short: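 Mouse neuroblastoma N2a cells, 1500/well, exposed to compounds 40 h at 37 °C in complete medium. Viability measured as cellular ATP by CellTiter-Glo luminescence; AC50 from Hill fits of concentration-response.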

[7] = Cell Viability - H-4-II-E (AID 543); note: potency is the fitted concentration of half-maximal effect; nearly all actives have a fitted effect of over 35% in size
In short: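 Rat hepatoma H-4-II-E cells, 1500 per well, treated 40 h at 37 °C in complete medium. Cellular ATP read by CellTiter-Glo luminescence; AC50 from Hill fits of concentration-response.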

[8] = Cell Viability - Mesenchymal (AID 546); conditions: mesenchymal cells viability, qHTS; activity change, negative = cytotoxicity: at 91.7 µM (top of the series);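 note: cells exposed to compound for 40 hours before reading; 0% = DMSO only and -100% = 100 µM tamoxifen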
In short: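 Human kidney mesenchymal cells from normal renal glomeruli, 1000 cells/well, rested 5 hr at 37 °C, then treated 40 hr at 37 °C in complete medium. Cellular ATP read by CellTiter-Glo luminescence; AC50 from Hill-equation fits.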

[9] = Cell Viability - LYMP2-001 (AID 921); note: potency is the fitted concentration of half-maximal effect; nearly all actives have a fitted effect of over 70% in size
In short: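 qHTS, 1536-well; lymphoblastoid cells, 24 hr compound, 37 C; ATP by CellTiter-Glo, 30 min RT; luminescence; Hill-fit AC50.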

[10] = Cell Viability - LYMP1-002 - Assay at 16 hr (AID 948); note: potency is the fitted concentration of half-maximal effect
In short: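 Acute cytotoxicity is scored as a concentration-dependent fall in intracellular ATP in a human lymphoblastoid line (LYMP1-002) after 16 hr compound exposure at 37 C, measured by luciferase luminescence.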

[11] = MultiTox-Fluor Cytotoxicity Assay - LYMP1-002 - Live Cells (AID 955);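 note: cells exposed to compound for 16 hours; % is set by controls: 0 for no effect and ±100 for the full control effect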
In short: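 Human lymphoblastoid LYMP1-002 cells, 2500/well, treated 16 h at 37 C in complete medium. Live-cell protease activity via GF-AFC fluorescence (Ex/Em 405/510) after 60 min reagent incubation; AC50 from Hill fits.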

[12] = Cell Viability - LYMP1-003 - Assay at 24 hr (AID 963); note: potency is the fitted concentration of half-maximal effect
In short: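 Human lymphoblastoid LYMP1-003 cells, 2500/well, treated 24 h at 37 C in complete medium. Viability read as intracellular ATP by CellTiter-Glo luminescence after 30 min at room temperature; AC50 from Hill-equation fits of qHTS concentration-response.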

[13] = Cell Viability - LYMP1-003 - Assay at 40 hr (AID 964); note: potency is the fitted concentration of half-maximal effect; nearly all actives have a fitted effect of over 60% in size
In short: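 LYMP1-003 human lymphoblastoid cells, 2500/well, preincubated 5 h at 37 C, then treated with compound for 40 h at 37 C. Intracellular ATP read by CellTiter-Glo luminescence after 30 min at room temperature; AC50 from Hill-equation fits.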

[14] = Cell Viability - LYMP2-003 (AID 965);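 note: potency is the fitted concentration of half-maximal effect; cells exposed to compounds for 24 h before reading; nearly all actives have a fitted effect of over 50% in size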
In short: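 Acute cytotoxicity is scored as a concentration-dependent drop in intracellular ATP, measured by luciferase luminescence in human lymphoblastoid cells treated for 24 hours at 37 C. AC50 values derive from Hill-equation modelling.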

[15] = Cell Viability - LYMP2-004 (AID 966); note: potency is the fitted concentration of half-maximal effect; nearly all actives have a fitted effect of over 65% in size
In short: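 Lymphoblastoid LYMP2-004 cells, 2500 per well, were preincubated for 5 hr and then treated with compound for 24 h at 37 C in complete medium. Viability was read as cellular ATP by CellTiter-Glo luminescence, and AC50 values were taken from Hill fits to concentration-response data.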

[16] = Cell Viability - LYMP2-005 (AID 967); note: potency is the fitted concentration of half-maximal effect
In short: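 qHTS viability screen in LYMP2-005 cells: 24 h at 37 C with compound, ATP luminescence via CellTiter-Glo, AC50 from Hill curves.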

[17] = Cell Viability - LYMP2-009 (AID 968); note: potency is the fitted concentration of half-maximal effect; nearly all actives have a fitted effect of over 55% in size
[18] = Cell Viability - LYMP2-011 (AID 969); note: potency is the fitted concentration of half-maximal effect; nearly all actives have a fitted effect of over 60% in size
In short: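 2500 cells/well in complete medium, compound-treated 24 h at 37 C. Viability read as intracellular ATP by CellTiter-Glo luminescence after 30 min at room temperature. AC50 from Hill fits of qHTS concentration-response data.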

[19] = Cell Viability - LYMP2-013 (AID 970); conditions: LYMP2-013 lymphoblastoid cells viability; activity change, negative = cytotoxic: at 92.2 µM (top of the series); note: potency is the fitted concentration of half-maximal effect; nearly all actives have a fitted effect of over 55% in size
In short: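 Human lymphoblastoid LYMP2-013 cells, 2500/well, treated 24 h at 37 C in complete medium; viability as intracellular ATP by CellTiter-Glo luminescence after 30 min. AC50 from Hill fits of qHTS concentration-response.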

[20] = Cell Viability - LYMP2-015 (AID 971); note: potency is the fitted concentration of half-maximal effect; nearly all actives have a fitted effect of over 55% in size
In short: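 LYMP2-015 human lymphoblastoid cells (2500/well) in complete medium, compound-treated 24 h at 37 C; viability read as cellular ATP by CellTiter-Glo luminescence after 30 min at room temperature. AC50 from Hill-equation fits of qHTS concentration-response data.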

[21] = Cell Viability - LYMP2-017 (AID 972); note: potency is the fitted concentration of half-maximal effect; nearly all actives have a fitted effect of over 55% in size
In short: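 LYMP2-017 human lymphoblastoid cells (2500/well) settled 5 hr at 37 C, then exposed to compound 24 hr at 37 C in complete medium. Viability taken as intracellular ATP by CellTiter-Glo luminescence after 30 min at RT; AC50 from Hill fits.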

[22] = Cell Viability - LYMP2-019 (AID 973)
In short: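 Human lymphoblastoid LYMP2-019 cells (2500/well) preincubated 5 h at 37 C, then treated 24 h at 37 C in complete medium. Viability by CellTiter-Glo ATP luminescence after 30 min at room temperature; AC50 from Hill fits.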

[23] = Cell Viability - LYMP2-021 (AID 974)
In short: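 Human lymphoblastoid LYMP2-021 cells, 2500/well in complete medium, treated 24 hours at 37 C. Intracellular ATP by CellTiter-Glo luminescence (30 min, RT); AC50 from Hill fits of concentration-response.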

[24] = Cell Viability - LYMP2-023 (AID 975)
In short: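 LYMP2-023 human lymphoblastoid cells, 2500/well, preincubated 5 hr at 37 C, then compound-treated 24 hr at 37 C in complete medium. CellTiter-Glo luminescence (ATP) after 30 min at room temperature; AC50 from Hill-equation fits; tetraoctylammonium bromide positive control.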

[25] = Cell Viability - LYMP2-025 (AID 976); conditions: LYMP2-025 lymphoblastoid cell viability; activity change, negative = cytotoxicity: at 92.2 µM (top of the series); note: potency is the fitted concentration of half-maximal effect
In short: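 Human lymphoblastoid LYMP2-025 cells, 2500/well, exposed 24 h at 37 C in complete medium in 1536-well qHTS. Viability as cellular ATP by CellTiter-Glo luminescence; AC50 from Hill fits of concentration-response data.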

[26] = Cell Viability - LYMP2-006 (AID 978); note: potency is the fitted concentration of half-maximal effect; nearly all actives have a fitted effect of over 60% in size
In short: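 Concentration-dependent loss of intracellular ATP in a human lymphoblastoid line after 24 hr treatment at 37 C was measured by CellTiter-Glo luminescence, with AC50 values obtained from standard Hill-equation modelling.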

[27] = Cell Viability - LYMP2-007 (AID 979); conditions: LYMP2-007 lymphoblastoid cell viability; activity change, negative = cytotoxicity: at 92.2 µM (top of the series);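 note: potency is the fitted concentration of half-maximal effect; cells exposed to compound for 24 h before reading; nearly all actives have a fitted effect of over 60% in size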
In short: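 Human lymphoblastoid LYMP2-007 cells (2500/well) preincubated 5 h at 37 C, then treated 24 h at 37 C in complete medium. Viability by CellTiter-Glo ATP luminescence after 30 min at room temperature; AC50 from Hill fits.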
Tags give direction and shape of the fitted curve.

Cc1c(C(=O)O)c(O)cc2c1C(=O)c1c(O)c([C@H]3O[C@H](CO)[C@@H](O)[C@H](O)[C@H]3O)c(O)c(O)c1C2=O
inactive: Potency [11]
inconclusive: Potency [1] 109 µM [partial curve] | Potency [2] 71.5 µM [partial curve] | Potency [3] 118 µM [partial curve] | Potency [4] 99.9 µM [partial curve] | Potency [5] 39.8 µM [inhibitor, single point] | activity change, negative = cytotoxicity [6] -62.6% | Potency [7] 31.6 µM [falling, partial curve] | activity change, negative = cytotoxicity [8] -56.1% | Potency [9] 31.6 µM [cytotoxic, partial curve, poor fit] | Potency [10] 39.8 µM [cytotoxic, partial curve] | Potency [12] 39.8 µM [cytotoxic, partial curve] | Potency [13] 39.8 µM [cytotoxic, partial curve] | Potency [14] 25.1 µM [cytotoxic, full curve, poor fit] | Potency [15] 25.1 µM [cytotoxic, partial curve, poor fit] | Potency [16] 39.8 µM [cytotoxic, partial curve, poor fit] | Potency [17] 39.8 µM [cytotoxic, partial curve] | Potency [18] 50.1 µM [cytotoxic, partial curve] | Potency [19] 31.6 µM [cytotoxic, partial curve, poor fit] | Potency [20] 39.8 µM [cytotoxic, partial curve, poor fit] | Potency [21] 39.8 µM [cytotoxic, partial curve] | Potency [22] 20 µM [cytotoxic, full curve] | Potency [23] 39.8 µM [cytotoxic, partial curve] | Potency [24] 39.8 µM [cytotoxic, partial curve] | Potency [25] 50.1 µM [cytotoxic, partial curve, poor fit] | Potency [26] 39.8 µM [cytotoxic, partial curve, poor fit] | Potency [27] 39.8 µM [cytotoxic, partial curve, poor fit]
